Reference: ChEMBL document CHEMBL4888484, “Replenishing the malaria drug discovery pipeline: Screening and hit evaluation of the MMV Hit Generation Library 1 (HGL1) against asexual blood stage Plasmodium falciparum ,using a nano luciferase reporter read-out” (2022)
About 540 (0.36%) of roughly 150,000 compounds showed an effect of 50% or more. The list shows a part of the results.

Each compound was assayed on Plasmodium falciparum (assay: Primary screen in NF54 nanoGlo assay, in single point, at 2uM, 72h; a lower Z score goes with more inhibition). Settings: timepoint 72 hour.
Format: functional, Erythrocyte

SMILES | % Inhibition [%] | Z score
Cc1ccc(C2CCN(C(=O)[C@H](C)c3cccc(O)c3)CC2)cn1 | -11 | 1.49
COc1cccc(F)c1-c1c(-c2ccccc2)ncn1CCc1nncn1C | -7 | 1.21
COCC(NC1C2CCOC2C12CCC2)C1CC1 (stereo not drawn) | -15 | 1.56
Cc1noc(C2CCCN(C(C(=O)O)c3ccccc3Br)C2)n1 (stereo not drawn) | -13 | 1.35
Cc1cc(OC2COCC2N)nc2ccccc12 (stereo not drawn) | -2 | 0.29
c1cncc(-c2nc3c(c(N4CCc5n[nH]cc5C4)n2)CCNCC3)c1 | 2 | -0.22
N#CCCCS(=O)(=O)Cc1cc(Cl)ccc1Cl | -7 | 0.76
COc1ccccc1NC(=O)Nc1ccc2c(c1)C(=O)N(C)C2=O | 1 | -0.12
O=C(Cn1cnc2ccccc2c1=O)NCc1cncc(-c2ccco2)c1 | -6 | 1.14
CCC(O)CN(c1ccccc1)C1CCN(CC(F)(F)F)C1=O (stereo not drawn) | -7 | 0.7
CCCC(=O)Nc1ccc2c(c1)CN(C(=O)c1ccc(N(C)C)cc1)[C@H](C(=O)N(C)C)C2 | -7 | 1.14
Cc1nnc2c3ccc(Cl)cc3nc(N3CCN(C(=O)C4CCCC4)[C@@H](C)C3)n12 | -16 | 1.87
COc1ccc(C(=O)N2CCN(CC3CC3)[C@@H]3CS(=O)(=O)C[C@@H]32)cc1C | -8 | 1
O=C(c1cnn2cccnc12)N1CCN(CC2CC2)[C@@H]2CS(=O)(=O)C[C@@H]21 | -8 | 1.2
FCCCn1nnnc1-c1ccncc1 | -3 | 0.34
Cc1ccc(-n2ncc3c2CC(C)(C)C[C@@H]3NC(=O)CN2CCCC2=O)cc1 | -21 | 2.22
c1cnc(N2CCN(Cc3csc(-c4cccs4)n3)CC2)nc1 | -14 | 1.63
CC(C)c1ncc(C(=O)N2CCOC[C@@H](C3CCC3)C2)s1 | -4 | 0.69
CC(C)Cc1nc(CNC(C)C2CCCO2)no1 (stereo not drawn) | -10 | 0.9
CCn1cc(OC(=O)c2coc(-c3ccccc3)n2)cn1 | -7 | 0.91
Cc1ccc(NC(=O)CN2CC(=O)NC2=O)cc1C | -2 | 0.26
Cc1ccsc1C(=O)N1CC[C@@]2(CCCN(CC(C)(C)C)C2=O)C1 | 1 | -0.07
O=C(c1cc(C2CC2)on1)N1CCn2nc3c(c2C1)CCC3 | 16 | -2.01
Brc1cc(Br)c2nc(-c3ccc(C4CCCCC4)cc3)ccc2c1 | 33 | -1.13
Cc1cc(C)c2[nH]c(C(=O)N3CCC(O)(CN4CCCC4)CC3)c(C)c2c1 | -7 | 0.92
O=C1CCN(Cc2c[nH]nc2-c2ccc(F)cc2)CCN1CCN1CCCCC1 | 3 | -0.54
Cc1ccc(C(=O)Nc2cccc(N3CCCCCC3)c2)c(=O)[nH]1 | -12 | 1.57

SMILES | % Inhibition [%] | Z score
O=C(NCc1ccncc1)c1coc(COc2cccc(C(F)(F)F)c2)n1 | -10 | 1.48
CC(C)[C@H](NC(=O)c1cn(C)cn1)c1ncnn1C | -17 | 3.31
CCCC(=O)N(c1ccc2c(c1)c(C(=O)OCC)c(C)n2S(C)(=O)=O)S(C)(=O)=O | -15 | 1.97
Cn1ccnc1NC(=O)c1ccccc1-n1cnnc1 | 2 | -0.33
CN1CCC(N2C[C@@H](F)[C@@H](OCc3nc4ccccc4o3)C2)CC1 | 26 | -2.92
Cn1cncc1CNCC1(N2CCOCC2)CCCCC1 | -7 | 1.07
O=C(NCCc1cccs1)c1nn[nH]c1Nc1ccccc1F | 37 | -5.3
O=C(Nc1nc(-c2csc(NC(=O)c3cccc(C(F)(F)F)c3)n2)cs1)c1cccc(C(F)(F)F)c1 | 6 | -0.98
O=C(NC1CCOC2(CCOC2)C1)N[C@H]1CCCc2ccc(F)cc21 (stereo partly drawn) | -6 | 0.64
Cc1cc(C)cc(NC(=O)[C@H]2CCCN(S(=O)(=O)Cc3ccccc3Cl)C2)c1 | -5 | 0.71
O=C(c1ccc2ccccc2c1)[C@H]1CCCN(C(=O)CCN2CCCCO2)C1 | -15 | 2.24
O=C(c1onc2ccccc12)N1CCC(n2cc(C3CCCC3)nn2)CC1 | 2 | -0.19
CCCNC(=O)CN1CCn2nc(-c3ccccc3)cc2C1=O | 6 | -0.74
O=c1n(Cc2cccc(Br)c2)nc2c(S(=O)(=O)N3CCCCC3)cccn12 | 3 | -0.46
Cc1nc(C(C)C)oc1Cn1cnc2c(c1=O)CCC2 | -2 | 0.41
O=C(NC1CCCCC1)[C@@]12CCCC[C@H]1N(C1CC1)S(=O)(=O)CC2 | -6 | 0.74
CC(C)(Cc1cccc(Cl)c1)C(=O)NCC1(O)CCOCC1 | 6 | -1
CC[C@@H](C)[C@H](NC(=O)N1CC(=O)Nc2ccccc21)C(=O)NCc1cccnc1 | -5 | 0.6
CC(=O)Nc1ccc(CN2CCc3c(c(CO)nn3C)C2)cc1 | -4 | 0.78
c1ccc(-c2nnc(-c3cccnc3NCc3cccs3)o2)cc1 | -5 | 0.8
O=C(NC1CC1c1cccc(F)c1)c1cc[n+]([O-])cc1 (stereo not drawn) | -1 | 0.2
O=C(O)c1ccc2[nH]c(C3CC3)nc2c1 | 7 | -0.77
C=CCOc1ccc(C(=O)NCCOC)cc1 | -11 | 1.66
COc1ccc(C(=O)N[C@H](C(=O)NC(C)C)C2CCN(C(=O)c3cccc(OC)c3)CC2)cc1 | -3 | 0.63
CCCn1c(=O)n(CCC(=O)N2CCC[C@H](c3nnc4ccccn34)C2)c2ccccc21 | -8 | 1.03
CC(=O)Nc1sc2c(c1-c1nc3ccccc3s1)CCN(C(C)=O)C2 | -6 | 0.97
CN(Cc1ccco1)C(=O)c1nc(N2CCOCC2)ncc1Cl | -6 | 1.09
